# Laboratory results published in PubChem BioAssay (Tox21).
# Inconclusive results, whose numbers are uncertain, are shown with a selection of clear calls. A potency beside an inconclusive call is a rough fit, not a confirmed value. Some compounds were tested as several samples or in several runs, with calls that do not always agree. The source made the active and inactive calls. Calls follow the shape of the dose curve; as a rule, active = well fitted cell-killing curve with a large enough effect in the repeat runs; inconclusive = weak or mixed curves, or effect the other way; inactive = no such curve, though single readings can be large or run the other way.
# Assay: qHTS assay to identify small molecule agonists of the RXR signaling pathway - cell viability counter screen (AID 1159529); also: nearly all actives have a fitted effect of over 50% in size;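 as to activity change, negative = cytotoxicity: HEK 293T cells carrying an RXR-alpha UAS beta-lactamase reporter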
# Conditions: RXR-alpha-bla HEK293T viability, CellTiter-Glo, 16 h; series mostly up to 76.8 µM; activity change, negative = cytotoxicity: at the top concentration
# Method in brief: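 Same-well viability check after the LiveBLAzer FRET read: CellTiter-Glo added, luminescence measured after 30 min at room temperature. Reporter HEK 293T cells had been treated with compounds for 16 hr following a 5 hr preincubation.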
# % is scaled to controls: 0 for no effect and ±100 for the full control effect; potency is read from the fitted curve at half-maximal effect; tags tell the direction and shape of the fitted curve.
Structure (SMILES),Potency,"activity change, negative = cytotoxicity"
CN(C)CCc1c[nH]c2cccc(O)c12,"inconclusive: 61 µM [cytotoxic, single point]",
CCCCCCCCCBr,,inactive: 4.27%
CC(=O)C=C(C)C,inactive,
CC[N+]1(C)CCCC1,"inconclusive: 61.8 µM [cytotoxic, single point]",
CNC,"inconclusive: 19.5 µM [rising, partial curve, poor fit]",
Cc1cc(C(F)(C(F)(F)F)C(F)(F)F)ccc1NC(=O)c1cccc(I)c1C(=O)NC(C)(C)CS(C)(=O)=O,"inconclusive: 39.1 µM [cytotoxic, partial curve]",
Oc1ccccc1-c1ccccc1,"inconclusive: 26.8 µM [rising, partial curve, poor fit]",
NC(=S)Nc1ccccc1,active: 25 µM,
FC(F)(F)c1cccc(C2=CCN(CCc3ccc4ccccc4c3)CC2)c1,"inconclusive: 19 µM [cytotoxic, partial curve]",
CCOP(=O)(OCC)SCCSCC,inactive,
CC1=C2C[C@H]3[C@@H](CC=C4C[C@@H](O)CC[C@@]43C)[C@@H]2CC[C@]12O[C@@H]1C[C@H](C)CN[C@H]1[C@H]2C,"inconclusive: 2.13 µM [cytotoxic, full curve]",
CC(O)(CS(=O)(=O)c1ccc(F)cc1)C(=O)Nc1ccc(C#N)c(C(F)(F)F)c1 (stereo unspecified),active: 22.7 µM,
SCc1ccco1,,inactive: 6.68%
COC(=O)Nc1nc2ccccc2[nH]1,inactive,
Nc1cccnc1,inactive,
COc1ccc(O)c(C(C)(C)C)c1,"inconclusive: 49.1 µM [cytotoxic, single point]",
